About 2,200 (0.71%) of roughly 310,000 compounds showed an effect of 50% or more. The effect is printed as a negative number. This is one part of the list.
The compounds below were run against human ether-à-go-go-related gene (hERG) potassium channel (human, UniProt Q12809) (assay: primary screen, population patch clamp on CHO cells stably expressing hERG).
Sequence of human ether-à-go-go-related gene (hERG) potassium channel (Q12809 whole entry, looked up): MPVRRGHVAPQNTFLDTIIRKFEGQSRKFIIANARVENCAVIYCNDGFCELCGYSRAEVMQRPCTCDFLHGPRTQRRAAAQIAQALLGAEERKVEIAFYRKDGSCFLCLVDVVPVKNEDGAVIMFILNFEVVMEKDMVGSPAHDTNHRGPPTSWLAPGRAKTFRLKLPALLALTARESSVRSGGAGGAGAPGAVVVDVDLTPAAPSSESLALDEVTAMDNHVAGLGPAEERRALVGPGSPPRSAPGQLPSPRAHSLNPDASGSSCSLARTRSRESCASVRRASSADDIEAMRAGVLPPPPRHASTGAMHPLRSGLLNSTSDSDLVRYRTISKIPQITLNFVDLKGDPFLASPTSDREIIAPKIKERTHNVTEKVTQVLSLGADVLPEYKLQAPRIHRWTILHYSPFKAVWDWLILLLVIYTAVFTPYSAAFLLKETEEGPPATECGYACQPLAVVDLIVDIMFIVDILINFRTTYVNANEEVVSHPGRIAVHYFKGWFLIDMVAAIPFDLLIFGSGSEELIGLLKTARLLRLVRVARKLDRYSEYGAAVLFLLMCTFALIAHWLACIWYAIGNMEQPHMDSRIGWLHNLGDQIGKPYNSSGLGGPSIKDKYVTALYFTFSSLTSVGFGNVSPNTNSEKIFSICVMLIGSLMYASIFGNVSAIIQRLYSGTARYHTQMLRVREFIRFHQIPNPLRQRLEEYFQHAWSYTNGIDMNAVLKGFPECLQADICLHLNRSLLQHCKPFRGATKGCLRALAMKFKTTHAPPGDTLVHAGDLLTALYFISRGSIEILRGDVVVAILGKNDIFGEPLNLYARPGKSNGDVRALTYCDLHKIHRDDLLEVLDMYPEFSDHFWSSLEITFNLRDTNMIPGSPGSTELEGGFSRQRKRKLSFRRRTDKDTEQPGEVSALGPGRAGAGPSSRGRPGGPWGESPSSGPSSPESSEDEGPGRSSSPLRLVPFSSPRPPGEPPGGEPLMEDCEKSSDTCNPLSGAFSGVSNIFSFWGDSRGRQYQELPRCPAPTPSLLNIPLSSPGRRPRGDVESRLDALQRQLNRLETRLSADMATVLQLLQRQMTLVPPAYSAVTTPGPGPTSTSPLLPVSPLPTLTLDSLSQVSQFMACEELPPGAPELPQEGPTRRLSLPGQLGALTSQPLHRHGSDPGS
`CS(=O)(=O)N1CCCC(C(=O)Nc2ccccc2F)C1` (centres unmarked) was tested, and the “hERG current change (%, negative = inhibition) at 1uM” value was 15.3%.
`OC[C@@H](O)[C@@H](O)[C@H](O)[C@H](O)CO` was tested, and the “hERG current change (%, negative = inhibition) at 1uM” value was 10.8%.
For `Cc1ccc2ccccc2c1NC(=O)Cn1nnc(-c2cccnc2)n1`, the “hERG current change (%, negative = inhibition) at 1uM” value was 12%.
In the case of `C=CCc1cccc2cc(C(=O)OCC(=O)c3ccccc3)c(=O)oc12`, the “hERG current change (%, negative = inhibition) at 1uM” value was -1.67%.
`COCCCN=Cc1c(O)[nH]c(=S)[nH]c1=O` was tested, and the “hERG current change (%, negative = inhibition) at 1uM” value was 4.97%.
For `O=C(O)C(NS(=O)(=O)c1ccccc1)C(O)c1ccccc1` (centres unmarked), the “hERG current change (%, negative = inhibition) at 1uM” value was 18.4%.
With `CCOc1ccc2c(C)c(C(=O)O)oc2c1OCC` the “hERG current change (%, negative = inhibition) at 1uM” value was 5.32%.
In the case of `COc1ccc(NS(=O)(=O)c2cccc(C(=O)N(C)Cc3ccc(SC)cc3)c2)cc1`, the “hERG current change (%, negative = inhibition) at 1uM” value was 4.46%.
With `O=c1c(Cc2c(F)cccc2Cl)c(O)ccn1CCCN1CCOCC1` the “hERG current change (%, negative = inhibition) at 1uM” value was -2.7%.
In the case of `Cn1cc([N+](=O)[O-])c(C(=O)N/N=C/c2ccc3c(c2)OCO3)n1`, the “hERG current change (%, negative = inhibition) at 1uM” value was 1.71%.
In the case of `Cc1ccc(C(=O)Nc2nc(C)c(C(=O)N(C)C)s2)o1`, the “hERG current change (%, negative = inhibition) at 1uM” value was 7.47%.
With `Cc1nc(C(=O)O)nn1-c1cc(Cl)ccc1Cl` the “hERG current change (%, negative = inhibition) at 1uM” value was 16.1%.
For `CCC(c1nnnn1Cc1ccccc1)N1CCN(c2ccccc2)CC1` (centres unmarked), the “hERG current change (%, negative = inhibition) at 1uM” value was 9.26%.
With `Cc1cc(Oc2ccc(N)cn2)ccc1Cl` the “hERG current change (%, negative = inhibition) at 1uM” value was 14.2%.
In the case of `CC(/C=C/C=C/c1ccccc1)=N/NC(=O)CNc1ccc(C)cc1`, the “hERG current change (%, negative = inhibition) at 1uM” value was 16%.
`O=C(CCCC(=O)OCC(F)(F)C(F)F)Nc1nccs1` was tested, and the “hERG current change (%, negative = inhibition) at 1uM” value was 13.1%.
With `CC1CN(C(=O)COC(=O)c2cc(Cl)ccc2[N+](=O)[O-])CC(C)O1` (centres unmarked) the “hERG current change (%, negative = inhibition) at 1uM” value was 18%.
For `Cn1cc([N+](=O)[O-])c(C(=O)NCc2ccco2)n1`, the “hERG current change (%, negative = inhibition) at 1uM” value was 24.8%.
`COC(=O)c1[nH]c2ccc(C)cc2c1NC(=O)Nc1ccc(OC)cc1` was tested, and the “hERG current change (%, negative = inhibition) at 1uM” value was -9.72%.
With `C[n+]1cccc(C(=O)NCC2CCCO2)c1.[I-]` (centres unmarked) the “hERG current change (%, negative = inhibition) at 1uM” value was 7.7%.
For `COc1nccnc1NS(=O)(=O)c1ccc(NC(=S)NC(=O)/C=C/c2ccc(F)cc2)cc1`, the “hERG current change (%, negative = inhibition) at 1uM” value was 2.18%.
`CCCn1c(N)c(C(=O)CSc2n[nH]c(-c3ccc(C)cc3)n2)c(=O)[nH]c1=O` was tested, and the “hERG current change (%, negative = inhibition) at 1uM” value was 18%.
With `Cc1cc(/C=C(/C#N)C(=O)O)c(C)n1CCC(C)C` the “hERG current change (%, negative = inhibition) at 1uM” value was 4.5%.
For `CCN(C(=O)CSc1nncn1-c1ccccc1)C1CCS(=O)(=O)C1` (centres unmarked), the “hERG current change (%, negative = inhibition) at 1uM” value was 15%.
In the case of `CCN(CC)S(=O)(=O)N1CCC(C(=O)NC2CCCC2)CC1`, the “hERG current change (%, negative = inhibition) at 1uM” value was 3.5%.
With `CSc1ccccc1NC(=O)C1=COCCO1` the “hERG current change (%, negative = inhibition) at 1uM” value was 11.4%.
In the case of `O=C(CSC1=NS(=O)(=O)c2cc(Cl)ccc2N1)Nc1cccc(F)c1`, the “hERG current change (%, negative = inhibition) at 1uM” value was 6.29%.
For `COc1cccc(NC(=O)CCNC(=O)C2CCN(S(=O)(=O)c3ccc(F)cc3)CC2)c1`, the “hERG current change (%, negative = inhibition) at 1uM” value was 14.9%.
`O=C(Nc1cccnc1)c1cc2nc(C3CC3)cc(C(F)(F)F)n2n1` was tested, and the “hERG current change (%, negative = inhibition) at 1uM” value was 8.19%.
In the case of `CN(C)CCCNS(=O)(=O)c1ccc(NC2CCCCCC2)c([N+](=O)[O-])c1`, the “hERG current change (%, negative = inhibition) at 1uM” value was 7.18%.
For `CCOc1ccc(NC(=O)COn2nnc3ccc(S(=O)(=O)N4CCOCC4)cc32)cc1`, the “hERG current change (%, negative = inhibition) at 1uM” value was 2.89%.
`Cc1cccc(Nc2nc(N)c([N+](=O)[O-])c(NCc3ccco3)n2)c1` was tested, and the “hERG current change (%, negative = inhibition) at 1uM” value was 11.7%.
With `COc1cccc(-c2cccc(NC(=O)C3CCN(C4CCOCC4)CC3)c2)c1` the “hERG current change (%, negative = inhibition) at 1uM” value was -14.6%.
`Cc1ccc(CNC(=O)Nc2ccc(Cl)cc2)cc1` was tested, and the “hERG current change (%, negative = inhibition) at 1uM” value was 15.8%.
`CC(C)CCNC(=O)/C=C/c1ccc(Br)cc1` was tested, and the “hERG current change (%, negative = inhibition) at 1uM” value was 8.76%.
`CCOC(=O)c1c(N)n[nH]c1-c1ccccc1` was tested, and the “hERG current change (%, negative = inhibition) at 1uM” value was 16.2%.
In the case of `COc1ccc(N(C)C(=O)c2cn(CC(C)C)c(=O)c3cc(OC)c(OC)cc23)c(OC)c1`, the “hERG current change (%, negative = inhibition) at 1uM” value was 7.71%.
`CC(C)[C@H](NC(=O)c1ccco1)C(=O)OCc1cc(=O)n2c(n1)sc1ccccc12` was tested, and the “hERG current change (%, negative = inhibition) at 1uM” value was 3.21%.
For `COc1cc2c(cc1C1NC(=S)NC(C)=C1C(=O)N(C)C)CCCC2` (centres unmarked), the “hERG current change (%, negative = inhibition) at 1uM” value was -5.53%.
With `CC(C)C(=O)O/N=C(\N)c1ccccn1` the “hERG current change (%, negative = inhibition) at 1uM” value was 3.94%.
`CC(Sc1n[nH]c(N)n1)C(=O)Nc1cccc(S(=O)(=O)N2CCOCC2)c1` (centres unmarked) was tested, and the “hERG current change (%, negative = inhibition) at 1uM” value was 21.9%.
With `CCN(CC)S(=O)(=O)c1cccc(-c2nnc(SC(C)C(N)=O)n2CCc2ccccc2)c1` (centres unmarked) the “hERG current change (%, negative = inhibition) at 1uM” value was 0.698%.
With `O=S(=O)(c1ccccc1)c1cnc(-c2cccnc2)nc1-c1ccccc1` the “hERG current change (%, negative = inhibition) at 1uM” value was 2.96%.
`Brc1c(C[n+]2ccccc2)nc2ccccn12.[Br-]` was tested, and the “hERG current change (%, negative = inhibition) at 1uM” value was 12.7%.
For `Cc1ccc(NCC(=O)Nc2ccc(Br)cc2)cc1C`, the “hERG current change (%, negative = inhibition) at 1uM” value was 10.5%.
`CC(C)(C)c1cc(NC(=O)Nc2ccccc2)no1` was tested, and the “hERG current change (%, negative = inhibition) at 1uM” value was 9.69%.
With `C=CCNS(=O)(=O)c1nc(C)c(Cl)c(C)c1C#N` the “hERG current change (%, negative = inhibition) at 1uM” value was 6.93%.
In the case of `CNC(=O)c1nn(-c2ccc(Cl)cc2)ccc1=O`, the “hERG current change (%, negative = inhibition) at 1uM” value was 10.2%.
In the case of `O=C(NCc1ccccc1CN1CCCC1)C1CCN(S(=O)(=O)c2ccc(F)c(F)c2)CC1`, the “hERG current change (%, negative = inhibition) at 1uM” value was -8.52%.
`CSc1ncccc1C(=O)Nc1ccc(S(=O)(=O)N2CCCC2)cc1` was tested, and the “hERG current change (%, negative = inhibition) at 1uM” value was -16.8%.
With `O=c1[nH]c(CSc2nc3ccccc3o2)nc2c1cnn2-c1ccccc1` the “hERG current change (%, negative = inhibition) at 1uM” value was 0.461%.
`Cc1ccc(CNC(=O)C2CCCN2C(=O)Nc2ccccc2)cc1` (centres unmarked) was tested, and the “hERG current change (%, negative = inhibition) at 1uM” value was 7.54%.
For `COc1ccc(NC(=S)NCc2ccco2)cc1`, the “hERG current change (%, negative = inhibition) at 1uM” value was 10.9%.
For `O=C(NC(NC(=O)c1ccccc1)c1ccccc1)c1ccccc1`, the “hERG current change (%, negative = inhibition) at 1uM” value was -0.669%.
For `CCn1nccc1C(=O)Nc1cccc(C)c1C`, the “hERG current change (%, negative = inhibition) at 1uM” value was 10.9%.
For `CC(=O)Nc1ccccc1C(=O)C(=O)NCCc1ccccc1`, the “hERG current change (%, negative = inhibition) at 1uM” value was 0.193%.
`Cc1c(Cl)ccc2c(C(=O)NC(C)c3ccncc3)cc(-c3ccncc3)nc12` (centres unmarked) was tested, and the “hERG current change (%, negative = inhibition) at 1uM” value was -8.77%.
With `CCC(C)NC(=O)CN(c1ccc(OC)cc1)S(=O)(=O)c1ccccc1` (centres unmarked) the “hERG current change (%, negative = inhibition) at 1uM” value was 17.8%.
In the case of `Cc1cccc(NC(=O)Cn2c(C)c(C#N)c3ccccc32)c1C`, the “hERG current change (%, negative = inhibition) at 1uM” value was 12%.

Reference: publication PMC4336329 (PLoS ONE, 2015)
